Reference: paper PMC4336329 (PLoS ONE, 2015)
Out of some 310,000 compounds screened, about 2,200 (0.71%) showed an effect of 50% or more. The effect is printed as a negative number. This is one part of the list.

What follows are compounds tested against human ether-à-go-go-related gene (hERG) potassium channel (human, UniProt Q12809) (assay: primary screen, population patch clamp on CHO cells stably expressing hERG).
Chain of human ether-à-go-go-related gene (hERG) potassium channel (Q12809 whole entry, looked up): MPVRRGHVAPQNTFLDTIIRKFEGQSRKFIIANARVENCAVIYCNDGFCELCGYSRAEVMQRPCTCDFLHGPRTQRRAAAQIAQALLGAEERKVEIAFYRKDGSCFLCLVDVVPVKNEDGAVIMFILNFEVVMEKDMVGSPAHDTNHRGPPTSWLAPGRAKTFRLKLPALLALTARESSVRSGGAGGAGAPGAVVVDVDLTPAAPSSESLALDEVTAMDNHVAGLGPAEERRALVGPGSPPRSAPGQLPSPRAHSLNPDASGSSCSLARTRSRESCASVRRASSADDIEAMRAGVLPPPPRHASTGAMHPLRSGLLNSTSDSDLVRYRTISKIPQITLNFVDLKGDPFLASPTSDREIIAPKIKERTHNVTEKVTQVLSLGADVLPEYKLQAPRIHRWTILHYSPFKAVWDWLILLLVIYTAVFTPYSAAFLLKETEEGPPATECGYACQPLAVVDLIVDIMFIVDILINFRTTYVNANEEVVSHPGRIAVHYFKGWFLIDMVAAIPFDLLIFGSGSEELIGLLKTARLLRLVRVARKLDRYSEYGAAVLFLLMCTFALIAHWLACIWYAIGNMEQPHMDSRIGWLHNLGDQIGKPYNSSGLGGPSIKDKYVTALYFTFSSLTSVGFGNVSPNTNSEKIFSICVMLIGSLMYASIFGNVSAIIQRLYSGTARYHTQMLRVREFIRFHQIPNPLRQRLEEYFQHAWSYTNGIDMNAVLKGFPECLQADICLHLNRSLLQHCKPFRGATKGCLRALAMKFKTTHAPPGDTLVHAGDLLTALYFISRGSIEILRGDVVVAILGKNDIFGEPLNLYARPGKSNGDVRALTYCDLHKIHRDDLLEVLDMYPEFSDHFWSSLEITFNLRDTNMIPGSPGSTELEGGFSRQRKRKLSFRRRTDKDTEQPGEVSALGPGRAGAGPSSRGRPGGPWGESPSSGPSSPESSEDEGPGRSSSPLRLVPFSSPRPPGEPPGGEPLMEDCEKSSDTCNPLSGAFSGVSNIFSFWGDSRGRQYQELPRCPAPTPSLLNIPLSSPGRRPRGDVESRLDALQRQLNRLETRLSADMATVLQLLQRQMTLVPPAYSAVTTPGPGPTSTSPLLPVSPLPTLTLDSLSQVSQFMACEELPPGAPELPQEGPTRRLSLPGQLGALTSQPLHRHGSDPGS

SMILES	hERG current change (%, negative = inhibition) at 1uM [%]
CC(C)CN(C(=O)CCC(=O)OCC(=O)N(C)c1ccccc1)c1c(N)n(CC(C)C)c(=O)[nH]c1=O	11.2
CC(=O)Nc1cc[n+](C(C)C(=O)c2ccc(Br)cc2)cc1.[Cl-] (stereo not shown)	7.17
NC(=O)C1CCN(c2nc3c(S(=O)(=O)c4ccccc4)nnn3c3ccccc23)CC1	12.8
CC(C)c1ccc(C2C(C#N)=C(N)Oc3c2oc(CO)cc3=O)cc1 (stereo not shown)	4.15
CCCc1nc2ccccc2c(C(=O)OC(C)C(=O)NCc2ccc3c(c2)OCO3)c1CC (stereo not shown)	6.36
COc1ccc(C)cc1NC(=O)N1CCC2(CC1)OCCO2	9.97
O=[N+]([O-])c1cc(Cl)ccc1N1CCN(c2cccc(C(F)(F)F)c2)CC1	14.5
Fc1ccc(-n2c(Cn3nnc4ccccc43)n[nH]c2=S)cc1	33.3
Cn1c(=O)oc2cc(S(=O)(=O)NCCC(=O)N3CC=C(c4ccccc4)CC3)ccc21	0.471
COc1cc(CNc2cccc(F)c2)cc(Br)c1O	1.47
COc1ccc(C2(C)NC(=O)N(CC(=O)Nc3ccc(Br)cc3F)C2=O)cc1OC (stereo not shown)	13.3
CCCCn1c(N)c(N(CCC(C)C)C(=O)c2cccc(-n3cnnn3)c2)c(=O)[nH]c1=O	7.47
CCOc1ccc(C(=O)OCc2nnc(-c3cccs3)o2)cc1OC	-10.3
CCOc1ccc(S(=O)(=O)NC(C)C(=O)NC2CCCC2)cc1 (stereo not shown)	14.7
CS(=O)(=O)c1ccc(NC(=O)CCN2C(=O)C3CC=CCC3C2=O)cc1 (stereo not shown)	3.08
Cc1ccc(C)c(C(=O)OCC(=O)Nc2cccc(S(=O)(=O)N3CCCCC3)c2)c1	1.96
COc1ccc(NC(=O)c2cccc(S(=O)(=O)N3CCc4ccccc43)c2)cn1	13.2
O=C(O)c1cccnc1Cl	14.5
CS(=O)(=NS(=O)(=O)c1ccc(Cl)cc1)c1ccccc1 (stereo not shown)	10.2
COc1ccccc1Sc1ccccc1/C=N/NC(N)=O	15.9
COc1ccc(C(=S)N2CCN(C)CC2)cc1Br	1.54
O=C(CSCCO)Nc1ccccc1	12.7
Cc1cccc(C)c1N1CCc2cn[nH]c21	10.7

SMILES	hERG current change (%, negative = inhibition) at 1uM [%]
Cc1ccnc(SCC(=O)c2ccc(Br)s2)n1	10.3
O=c1cc(-c2ccncc2)oc2ccccc12	10.8
COC(=O)c1cc(NC(=O)C2(S(=O)(=O)c3ccc(C)cc3)CC2)cc(C(=O)OC)c1	0.157
O=C(CSc1n[nH]c(-c2ccco2)n1)Nc1ccc(F)cc1	14.8
COCc1c(C(=O)N/N=C(\C)c2ccc(Cl)s2)nnn1-c1nonc1N	14
CC1CCCCC1NC(=O)CCCn1c(=S)[nH]c2ccccc2c1=O (stereo not shown)	8.65
O=C(Nc1cccnc1Cl)c1cc2c(s1)-c1ccccc1OC2	3.37
CCOC(=O)c1cc(-c2ccc(C)o2)nn1CCC#N	17
Cc1nc2ccc([N+](=O)[O-])cc2c(=O)n1Cc1ccccc1Br	4.69
O=C(c1ccc2ccccc2n1)N1CCN(c2ccccn2)CC1	6.79
Oc1ccc2cccnc2c1	-0.778
CCCC(c1nnnn1CS(=O)(=O)c1ccc(C)cc1)N1CCN(CC)CC1.Cl (stereo not shown)	6.04
COc1ccc2[nH]c(C)c(CCNC(=S)Nc3cc(C)cc(C)c3)c2c1	18.3
CC1(C)Cc2c(sc3nc(-c4cccs4)n(N)c(=O)c23)CO1	-2.65
CC1=C2[C@@H]3OC(=O)[C@H](C)C3CC[C@@]2(C)C=CC1=O (stereo partly shown)	18.1
COc1cccc(N2C(=O)N(c3ccccc3Cl)C3CS(=O)(=O)CC32)c1 (stereo not shown)	4.36
Cc1cc2nc(-c3ccc[nH]c3=O)n(Cc3ccc(F)cc3)c2cc1C	8.99
CC(C)(C)Cc1nnc(NS(C)(=O)=O)s1	1.35
CCOC(=O)c1ccc(NC(=O)C2CC(=O)Nc3nc4ccccc4n32)cc1 (stereo not shown)	3.77
CSc1nc(-c2ccco2)nn1S(=O)(=O)c1ccc(C)cc1	3.34
COC(=O)CCC(=O)OC1(C)C(=O)C=C2C=C(C3CC3)N(C3CCCCC3)C=C2C1=O (stereo not shown)	7.93
CCOC(=O)CC(=O)NC(CC(=O)OC)c1ccc(Br)cc1 (stereo not shown)	10.2
Cc1cc(C)c2c(n1)sc1c(N3CCCCC3)ncnc12	12.9
